From US20050142080A1, “Cosmetic or dermatological light protection formulation with a benzoxazole derivative” (Beiersdorf AG, priority 2001, published 2005)

Conditions: K10T tensiometer from Krüss with a ring against air

Compound	σ [mN/m] at 25° C. (surface tension)
CC1CC(OC(=O)c2ccccc2O)CC(C)(C)C1 (stereo not shown) [Homosalate, homomenthyl salicylate]	33.2 mN/m
Pentaerythrityl Tetraisostearate	30.8 mN/m
CCCCC(CC)COC(=O)c1ccc2cc(C(=O)OCC(CC)CCCC)ccc2c1 (stereo not shown) [Diethylhexyl 2,6-Naphthalate]	32.6 mN/m
CCCCN(CCC(=O)OCC)C(C)=O [Ethyl Butylacetylaminopropionate, ethyl 3-(N-n-butyl-N-acetylamino)propionate]	27.0 mN/m
Octyldodecyl Myristate	29.8 mN/m
CCCCOC(=O)CCCCC(=O)OCCCC [Dibutyl Adipate]	22.7 mN/m
CCCCC(CC)COC(=O)C(C#N)=C(c1ccccc1)c1ccccc1 (stereo not shown) [Octocrylene, 2-ethylhexyl 2-cyano-3,3-diphenylacrylate]	35.7 mN/m
COc1ccc(C=CC(=O)OCCC(C)C)cc1 [Isoamyl-p-Methoxycinnamate, isopentyl 4-methoxycinnamate]	34.2 mN/m
CCCCC(CC)COC(=O)C=Cc1ccc(OC)cc1 (stereo not shown) [Ethylhexyl Methoxycinnamate, 2-ethylhexyl 4-methoxycinnamate]	32.4 mN/m
CCCCCCCCCCCCCCCCCCOC(=O)CCCCCC [Stearyl Heptanoate]	28.7 mN/m
Tridecyl Trimellitate	25.2 mN/m
CCCCCCCCCCCCCCCCCC(=O)OC(C)C [Isopropyl Stearate]	26.3 mN/m
CCCCC(CC)COC(=O)c1ccccc1O (stereo not shown) [Ethylhexyl Salicylate, 2-ethylhexyl 2-hydroxybenzoate]	32.2 mN/m
